# From PMC5700166
# The list shows a part of the results, in another mix than the full data. The list includes weakly bound sequences.
# Columns and labels:
# Assay in all cases: protein-binding microarray (PBM)
# Settings in all cases: PBM: ~300 nM protein, 6 mM HEPES pH 7.8, 80 mM KCl, 0.5 mM EDTA, 0.5 mM EGTA, 6% glycerol, 35 ng/ul poly-dIdC, 1% milk, 1 h, room temperature; Ap Aiptasia and Nv Nematostella (sea anemones) / Co Capsaspora / Aq Amphimedon (sponge) / Dm Drosophila / Hu human; RHD is the Rel homology domain; high values mean tight binding; most listed sequences are background and not binding sites; double strand, one strand shown
# GST-Ap-NF-kB RHD = molecular target: T1, GST-Ap-NF-kB RHD (UniProt A0A913YAJ5)
# T1 sequence: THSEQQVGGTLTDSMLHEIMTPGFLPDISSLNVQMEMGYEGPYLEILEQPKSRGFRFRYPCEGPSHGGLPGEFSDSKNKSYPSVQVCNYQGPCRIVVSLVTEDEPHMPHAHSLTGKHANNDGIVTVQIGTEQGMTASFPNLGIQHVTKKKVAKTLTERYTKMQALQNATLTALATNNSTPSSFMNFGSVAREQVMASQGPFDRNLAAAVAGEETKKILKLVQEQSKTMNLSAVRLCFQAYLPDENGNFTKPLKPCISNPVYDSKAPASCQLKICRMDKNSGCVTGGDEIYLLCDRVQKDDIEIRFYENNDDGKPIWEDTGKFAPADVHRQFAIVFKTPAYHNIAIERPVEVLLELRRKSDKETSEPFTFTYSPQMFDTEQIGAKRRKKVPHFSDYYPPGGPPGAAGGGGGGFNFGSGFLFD
# [1] = molecular target: T2, GST-Nv-NF-kB (Cys allele) (UniProt E5G601)
# T2 sequence: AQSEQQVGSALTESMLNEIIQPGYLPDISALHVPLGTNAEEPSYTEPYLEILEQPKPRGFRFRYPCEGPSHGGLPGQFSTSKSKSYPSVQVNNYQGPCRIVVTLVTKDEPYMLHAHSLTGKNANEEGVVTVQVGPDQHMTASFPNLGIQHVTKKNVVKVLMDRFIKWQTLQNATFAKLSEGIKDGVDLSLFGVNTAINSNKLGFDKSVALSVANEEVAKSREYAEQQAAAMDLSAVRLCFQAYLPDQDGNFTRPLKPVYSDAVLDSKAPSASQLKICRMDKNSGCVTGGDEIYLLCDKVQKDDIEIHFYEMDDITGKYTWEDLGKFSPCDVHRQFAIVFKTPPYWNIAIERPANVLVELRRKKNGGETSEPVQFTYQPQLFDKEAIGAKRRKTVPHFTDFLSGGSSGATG
# GST-Co-NF-kB = molecular target: T3, GST-Co-NF-kB (UniProt F1ARL5)
# T3 sequence: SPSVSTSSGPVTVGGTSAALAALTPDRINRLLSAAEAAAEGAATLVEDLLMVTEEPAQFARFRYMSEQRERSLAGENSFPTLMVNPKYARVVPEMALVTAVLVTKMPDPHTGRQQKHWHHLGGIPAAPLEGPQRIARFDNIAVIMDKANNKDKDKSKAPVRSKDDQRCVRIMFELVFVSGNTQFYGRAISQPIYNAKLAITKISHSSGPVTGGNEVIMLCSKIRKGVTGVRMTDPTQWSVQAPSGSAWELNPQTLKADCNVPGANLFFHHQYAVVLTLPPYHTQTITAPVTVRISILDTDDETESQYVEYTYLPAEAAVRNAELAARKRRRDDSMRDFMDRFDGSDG
# GST-Dm-Relish = molecular target: T4, GST-Dm-Relish (UniProt Q94527)
# T4 sequence: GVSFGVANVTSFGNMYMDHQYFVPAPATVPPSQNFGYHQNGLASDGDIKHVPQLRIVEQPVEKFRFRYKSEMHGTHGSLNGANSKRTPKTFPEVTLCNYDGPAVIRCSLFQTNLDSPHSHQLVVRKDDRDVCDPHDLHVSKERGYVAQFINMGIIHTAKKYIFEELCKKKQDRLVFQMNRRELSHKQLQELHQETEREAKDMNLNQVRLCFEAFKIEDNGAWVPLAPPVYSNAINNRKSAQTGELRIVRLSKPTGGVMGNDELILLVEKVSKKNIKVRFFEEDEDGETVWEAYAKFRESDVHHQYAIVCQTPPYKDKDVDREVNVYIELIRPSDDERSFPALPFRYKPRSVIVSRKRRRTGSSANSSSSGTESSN
# GST-Aq-NF-kB = molecular target: T5, GST-Aq-NF-kB (UniProt A9Y5G7)
# T5 sequence: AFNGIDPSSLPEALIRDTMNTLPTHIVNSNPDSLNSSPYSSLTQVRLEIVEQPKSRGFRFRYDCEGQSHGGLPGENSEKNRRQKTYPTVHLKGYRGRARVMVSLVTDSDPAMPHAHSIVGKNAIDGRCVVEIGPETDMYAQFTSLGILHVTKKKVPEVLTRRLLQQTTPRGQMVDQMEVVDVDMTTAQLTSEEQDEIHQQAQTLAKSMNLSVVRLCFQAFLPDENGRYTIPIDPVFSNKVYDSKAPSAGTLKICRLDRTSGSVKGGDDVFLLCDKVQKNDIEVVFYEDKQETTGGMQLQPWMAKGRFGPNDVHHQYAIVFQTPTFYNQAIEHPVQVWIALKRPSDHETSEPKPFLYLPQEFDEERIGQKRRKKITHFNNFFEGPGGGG
Sequence,binding signal (GST-Ap-NF-kB RHD),binding signal [1],binding signal (GST-Co-NF-kB),binding signal (GST-Dm-Relish),binding signal (GST-Aq-NF-kB)
CCGATTAACATCACTTAGTACGGTGATGTTAATCGGGTCTTGATTCGCTTGACGCTGCTG,0.0649 z-score,-0.35 z-score,0.763 z-score,1.1 z-score,0.24 z-score
CCGATTAACATCAGCGTGGGAACTGATGTTAATCGGGTCTTGATTCGCTTGACGCTGCTG,-0.135 z-score,0.62 z-score,0.726 z-score,0.103 z-score,0.354 z-score
CCGATTAACATCATCTTTTTACTTGATGTTAATCGGGTCTTGATTCGCTTGACGCTGCTG,-0.257 z-score,0.915 z-score,0.986 z-score,0.859 z-score,-0.0105 z-score
CCGATTAACATCAGCTTTATTTCTGATGTTAATCGGGTCTTGATTCGCTTGACGCTGCTG,-0.454 z-score,-0.302 z-score,-0.36 z-score,-0.323 z-score,-0.266 z-score
CCGATTAACATCAGGAAATGCCATGATGTTAATCGGGTCTTGATTCGCTTGACGCTGCTG,-0.133 z-score,-0.164 z-score,-0.264 z-score,-0.0109 z-score,0.921 z-score
CCGATTAACATCAGGGAGATCCCTGATGTTAATCGGGTCTTGATTCGCTTGACGCTGCTG,7.41 z-score,8.14 z-score,1.54 z-score,7.36 z-score,8.85 z-score
CCGATTAACATCACGCAGTATTGTGATGTTAATCGGGTCTTGATTCGCTTGACGCTGCTG,-0.186 z-score,0.105 z-score,-0.15 z-score,0.688 z-score,-0.321 z-score
CCGATTAACATCACAACCTGGGCTGATGTTAATCGGGTCTTGATTCGCTTGACGCTGCTG,0.293 z-score,0.108 z-score,0.31 z-score,-0.189 z-score,-0.213 z-score
CCGATTAACATCAGGAAAAGCCATGATGTTAATCGGGTCTTGATTCGCTTGACGCTGCTG,0.196 z-score,-0.0861 z-score,0.305 z-score,0.177 z-score,0.917 z-score
CCGATTAACATCAATAATTTGTATGATGTTAATCGGGTCTTGATTCGCTTGACGCTGCTG,-0.881 z-score,-0.462 z-score,0.403 z-score,-0.143 z-score,-0.353 z-score
CCGATTAACATCACTTGTCGCTTTGATGTTAATCGGGTCTTGATTCGCTTGACGCTGCTG,-0.364 z-score,-0.403 z-score,0.159 z-score,-0.0456 z-score,-0.307 z-score
CCGATTAACATCATGGGCTCCGATGATGTTAATCGGGTCTTGATTCGCTTGACGCTGCTG,-0.528 z-score,-0.282 z-score,-1 z-score,-0.19 z-score,-0.414 z-score
CCGATTAACATCATCGGACCGGCTGATGTTAATCGGGTCTTGATTCGCTTGACGCTGCTG,-0.0811 z-score,-0.957 z-score,-0.988 z-score,-0.948 z-score,-0.461 z-score
CCGATTAACATCAAACTAAAACATGATGTTAATCGGGTCTTGATTCGCTTGACGCTGCTG,-0.295 z-score,0.151 z-score,0.0936 z-score,-0.42 z-score,-0.498 z-score
CCGATTAACATCACACAAGGCTTTGATGTTAATCGGGTCTTGATTCGCTTGACGCTGCTG,-0.739 z-score,-0.176 z-score,-1.02 z-score,0.224 z-score,-0.628 z-score
CCGATTAACATCACGCGATCATATGATGTTAATCGGGTCTTGATTCGCTTGACGCTGCTG,-0.0123 z-score,-0.66 z-score,-0.807 z-score,-0.195 z-score,-0.37 z-score
CCGATTAACATCAGCATACCGAGTGATGTTAATCGGGTCTTGATTCGCTTGACGCTGCTG,-0.0672 z-score,-0.179 z-score,0.186 z-score,-0.736 z-score,-0.401 z-score
CCGATTAACATCAGCCTGCCCACTGATGTTAATCGGGTCTTGATTCGCTTGACGCTGCTG,-0.0421 z-score,-0.357 z-score,-0.407 z-score,-0.984 z-score,-0.287 z-score
CCGATTAACATCAGCTGCCTCCATGATGTTAATCGGGTCTTGATTCGCTTGACGCTGCTG,0.32 z-score,-0.907 z-score,-0.181 z-score,-0.638 z-score,-0.688 z-score
CCGATTAACATCAGAAATTCCAATGATGTTAATCGGGTCTTGATTCGCTTGACGCTGCTG,-0.0239 z-score,-0.886 z-score,0.587 z-score,0.0329 z-score,0.303 z-score
CCGATTAACATCATTAAATCTCATGATGTTAATCGGGTCTTGATTCGCTTGACGCTGCTG,-0.43 z-score,-0.0899 z-score,-0.708 z-score,-0.276 z-score,-0.464 z-score
CCGATTAACATCATGCGATTATTTGATGTTAATCGGGTCTTGATTCGCTTGACGCTGCTG,-0.279 z-score,0.0904 z-score,-0.301 z-score,-0.036 z-score,-0.259 z-score
CCGATTAACATCATCAAATCTCGTGATGTTAATCGGGTCTTGATTCGCTTGACGCTGCTG,-0.156 z-score,0.122 z-score,-0.297 z-score,-0.32 z-score,-0.214 z-score
